This is one part of the list. Further columns of the screen follow, without active or inactive calls. Most of these compounds were active or inconclusive in the main read-out, so they are no random draw.

This assay is described as follows: inhibitors of triacylglycerol accumulation, primary screen, cell-based, uHTS, fluorescence, H9c2 (AID 651582). Conditions: H9c2 cells, Nile Red lipid (TAG) fluorescence; measured here:; at 12.5 µM; cells loaded with 200 µM oleic acid.
As to `CC(=O)n1cc(N(C(=O)CCl)c2ccccc2)c2ccccc21`, the DAPI nuclei signal change (viability), lower = more cytotoxic was -14%. Then `OCCCn1c(C2CCCN2c2nc(-c3ccc(Cl)cc3)cs2)nc2cc(Cl)c(N3CCCCC3)cc21` (stereo not drawn), with -3.3%; and `COc1ccc(S(=O)(=O)N2N=C(C)Oc3ccccc3C2=O)cc1`, with -35%. Regarding `CCCCCCCCCCCCCCCC[N+](C)(C)CCl`, the DAPI nuclei signal change (viability), lower = more cytotoxic was -44.6%.

As for `CCCCCCN(C(=O)CCCCCN1C(=O)NC(c2ccc([N+](=O)[O-])cc2)C(C(=O)OCc2ccccc2)=C1C)C(C(=O)NCCCC)C1CCCCC1` (stereo not drawn), the DAPI nuclei signal change (viability), lower = more cytotoxic was -16.5%. `Cc1ccc(-c2nn(-c3ccccc3)cc2NC(=O)CCl)cc1`: the DAPI nuclei signal change (viability), lower = more cytotoxic was -37.1%. Then `COc1cc(C2C(C#N)=C(N)Oc3cc(N)ccc32)cc(OC)c1OC` (stereo not drawn), with -28.1%; and `C=CC(=O)Nc1ccc(CN2C(=O)N(c3c(Cl)c(OC)cc(OC)c3Cl)Cc3cnc(NCCCCN(CC)CC)nc32)cc1`, with -47.2%; and `CSCCOC(=O)c1[nH]c2c(c1C)C(=O)CC(c1ccco1)C2` (stereo not drawn), with -36.3%.

For `CCCCCc1cc(=O)oc2c(C(CCN3CCCCC3)c3ccc4c(c3)OCO4)c(OC)cc(OC)c12` (stereo not drawn), the DAPI nuclei signal change (viability), lower = more cytotoxic was -48.4%.

Take `COc1cc(NC(=O)c2cc([N+](=O)[O-])ccc2NC(=O)CN2CCN(c3ccccn3)CC2)cc(OC)c1`: the DAPI nuclei signal change (viability), lower = more cytotoxic is -23.3%.

For `Cc1ccc2c(c1)N(C(=O)CCC(=O)NCCCN1CCC(Cc3ccccc3)CC1)CCO2`, the DAPI nuclei signal change (viability), lower = more cytotoxic was -32.2%. Then `c1ccc(Nc2nc(N3CCNCC3)nc(N3CCOCC3)n2)cc1`, with -26.5%.

Regarding `COc1ccc(Oc2nc(-c3ccccn3)nc3ccccc23)cc1`, the DAPI nuclei signal change (viability), lower = more cytotoxic is -21%. As to `O=C(COC(=O)C1=COCCO1)NCc1ccc(Cl)cc1Cl`, the DAPI nuclei signal change (viability), lower = more cytotoxic is -49.8%.

For the compound `CCOc1cc(CNC(C)(C)C)ccc1OCC(=O)Nc1cccc(C(F)(F)F)c1`, the DAPI nuclei signal change (viability), lower = more cytotoxic is -41.5%.

Turning to `CC1CCC(C(C)C)C(OC(=O)Cn2c(-c3ccc(Br)cc3)[n+](C)c3ccccc32)C1` (stereo not drawn), the DAPI nuclei signal change (viability), lower = more cytotoxic is -18.7%. As to `CCCOC(=O)c1ccc(NC(=O)CCOc2ccccc2)cc1`, the DAPI nuclei signal change (viability), lower = more cytotoxic amounted to 1.85%.

As for `Cc1nn(Cc2c(Cl)cccc2Cl)c(C)c1NC(=O)c1cn(-c2ccccc2)nc1-c1ccccc1`, the DAPI nuclei signal change (viability), lower = more cytotoxic is -6.12%.

For `C=CC[C@@H](CC(=O)N(CCO)Cc1ccccc1)C(=O)N[C@H](COC(=O)[C@@H](CC=C)CC(=O)OC(C)(C)C)C(C)(C)C`, the DAPI nuclei signal change (viability), lower = more cytotoxic was -7.71%. Then `COc1cc(NC(=O)Nc2nc(C(N)Cc3ccc(C(F)(F)F)cc3)cs2)cc(OC)c1OC` (stereo not drawn), with -32.6%; and `Oc1ccc(N=Nc2ccc3c(c2)OCCO3)c2cccnc12`, with -47.2%. Then `CCOc1ccc2nc(NC(=O)C3CCCN(S(=O)(=O)c4c(C)noc4C)C3)sc2c1` (stereo not drawn), with -6.13%; and `CCC(=O)Nc1nonc1-c1nc2ccccc2n1Cc1cccc2ccccc12`, with -18%; and `Cc1c(C(=O)N2CC3(CC(c4cccc(NC(=O)CC(c5ccccc5)c5ccccc5)c4)=NO3)C[C@@H]2C(N)=O)cc([N+](=O)[O-])cc1[N+](=O)[O-]` (stereo partly drawn), with -1.18%. As for `CCOc1ccc(CCNC(=O)Cn2c(-c3nonc3N)nc3ccccc32)cc1OCC`, the DAPI nuclei signal change (viability), lower = more cytotoxic is -6.02%. Then `CCN(CC)CCNC(=O)c1c(C)n(-c2ccccc2)c2cc(Br)c(OC)cc12`, with -10.7%; and `NC(Cc1ccc(C(F)(F)F)cc1)c1csc(Nc2nncc3ccccc23)n1` (stereo not drawn), with -11.9%; and `CCCC(=O)NC(c1ccc(C)cc1)c1ccc2cccnc2c1O` (stereo not drawn), with -43%. On to `CCOC(=O)Nc1nc(-c2ccccc2)c(C(=O)c2ccc(Cl)cc2)s1`, for which the DAPI nuclei signal change (viability), lower = more cytotoxic was -28.2%.

On to `Cc1sc(NC(=O)c2cccc([N+](=O)[O-])c2)c(C(N)=O)c1-c1ccc(C(C)(C)C)cc1`, for which the DAPI nuclei signal change (viability), lower = more cytotoxic is -5.33%. To `Cc1ccc(/C=N/NC(=O)c2c(C)nc3ccc(Br)cn23)cc1` belongs -30.8%. Then `COC(=O)c1ccc(Cl)c(NC(=O)NC23CC4CC(CC(C4)C2)C3)c1`, with -9.34%; and `CC1(C(=O)NCc2ccco2)Cc2c(-c3cccc(C(F)(F)F)c3)ccnc2O1` (stereo not drawn), with -39.4%; and `COc1cccc(C2c3c(C)nn(-c4ccc([N+](=O)[O-])cc4)c3N=C3C(=O)Nc4ccccc4N32)c1` (stereo not drawn), with -28.1%.

Regarding `CC(C)CNC(=O)c1coc(=O)c(Br)c1`, the DAPI nuclei signal change (viability), lower = more cytotoxic is -39.6%.

Turning to `Cc1occc1C(=O)NC(C)CCc1ccccc1` (stereo not drawn), the DAPI nuclei signal change (viability), lower = more cytotoxic came to 1.56%. Then `COc1cc(C)c2sc3ccccc3c(=O)c2c1NCCN(C)C`, with -39.1%. To `CN(C)CCNC(=O)c1cccc2nc3c(ccc4ccccc43)nc12` belongs -11.4%. In the case of `COc1ccc(OC)c(C2CC(c3ccccc3)=NN2C(=S)Nc2ccccc2)c1` (stereo not drawn), the DAPI nuclei signal change (viability), lower = more cytotoxic is -41.1%.

As for `Cc1cc(C(=O)COC(=O)c2ccc([N+](=O)[O-])o2)c(C)n1CC1CCCO1` (stereo not drawn), the DAPI nuclei signal change (viability), lower = more cytotoxic was -44.3%. For `CCCCCc1cc(=O)oc2c(C(CCN3CCCC3)c3cc(OC)c(OC)c(OC)c3)c(OC)cc(OC)c12` (stereo not drawn), the DAPI nuclei signal change (viability), lower = more cytotoxic was -43.2%. As to `CC(C)C[C@H](CO)N(Cc1ccccc1)S(=O)(=O)N(Cc1ccccc1)[C@@H](CO)CC(C)C`, the DAPI nuclei signal change (viability), lower = more cytotoxic is -3.88%. Then `CCCCCc1cc(=O)oc2c(C(CCN3CCN(c4ccccc4)CC3)c3ccc4c(c3)OCO4)c(OC)cc(OC)c12` (stereo not drawn), with 10.3%; and `CCC(=O)Nc1ccc(C(=O)Cn2ncc(Cl)c(Cl)c2=O)cc1`, with -39.6%; and `Cc1cc(=O)oc2cc(NC(=O)c3cccc(Br)c3)ccc12`, with -29.3%. Then `O=[N+]([O-])c1ccccc1/C=C/C=N/Nc1ccc(S(=O)(=O)Nc2ccc(Cl)cc2)cc1[N+](=O)[O-]`, with -4.49%; and `COc1ccc(NS(=O)(=O)c2cc(C)ccc2NC(=O)c2cc(C)oc2C)cc1`, with -35%; and `CCOCC(=O)NC1CCc2cc(OC)c(OC)c(OC)c2-c2ccc(SC)c(=O)cc21` (stereo not drawn), with -43%. To `NC(Cc1ccc(Cl)cc1)c1csc(NC(=O)NCCc2ccccc2)n1` (stereo not drawn) belongs -27.9%.

As for `C(=N\Nc1nc2ccccc2[nH]1)/c1cccc2nccnc12`, the DAPI nuclei signal change (viability), lower = more cytotoxic was -17.1%. To `CCCCC(=NCCc1c(C)[nH]c2ccc(OC)cc12)C1=C(O)CC(c2ccccc2)CC1=O` (stereo not drawn) belongs -31.4%; to `Oc1ccc(N=Nc2ccc3c(c2)OCCO3)c2ncccc12`, -16.6%; to `COC(=O)C1=C(c2ccc(OC)cc2)OC(=O)C1(C)C`, -40.2%. As to `CCOc1ccc(CCNC(=O)CCc2nc(-c3ccc(C)cc3)no2)cc1OCC`, the DAPI nuclei signal change (viability), lower = more cytotoxic was -6.95%. To `COc1ccc(-c2cnnc(N/N=C/c3ccc(-c4ccc([N+](=O)[O-])cc4)o3)n2)cc1` belongs -24.8%; to `COc1cc(/C=C/C(=O)N2CCC=CC2=O)cc(OC)c1OC`, -35.4%; to `c1ccc(-c2nc(N3CCOCC3)cc(N3CCOCC3)n2)cc1`, -3.13%.

With `N#CC1=C(N)Oc2cc(Nc3ccccc3)ccc2C1c1ccncc1` (stereo not drawn), the DAPI nuclei signal change (viability), lower = more cytotoxic was -39.7%. To `C=CCC[C@H](Cc1ccc(F)cc1)C(=O)OC[C@H](C)NC(=O)[C@@H](CC=C)CC(=O)N[C@H](CO)Cc1ccccc1` belongs -12.4%; to `C[C@]12c3[nH]c4ccccc4c3CCN1C(=O)C(CC(=O)NCC13CC4CC(CC(C4)C1)C3)C[C@@H]2C(=O)N1CCCCC1` (stereo partly drawn), -40.2%. To `Cc1ccc(C(=O)N/C(=C\c2ccc(-c3ccccc3[N+](=O)[O-])o2)C(=O)NCCN(C)C)cc1` belongs -16.2%; to `C=CC[C@@H](CC(=O)N(CCO)Cc1ccccc1)C(=O)N[C@H](COC(=O)[C@@H](CC=C)Cc1ccc(F)cc1)Cc1ccccc1`, -1.84%.

Regarding `Clc1ccc(-c2csc(NNC3=NCCCCC3)n2)cc1`, the DAPI nuclei signal change (viability), lower = more cytotoxic was -48.4%. Then `COc1ccc(Cc2n[nH]c(=S)o2)cc1`, with -28.1%. Then `O=C(O)CC1(CC(=O)Nc2cc(C(F)(F)F)cc(C(F)(F)F)c2)CCCCC1`, with -37.8%; and `Nc1ncnc2c1ncn2C1C=C(CO)C(O)C1O` (stereo not drawn), with -14.2%. Then `Oc1ccccc1/C=N/Nc1nc2ccccc2o1`, with -29.8%; and `CC(=O)Nc1ccc(NC2=Nc3ccccc3N3C2=Nc2c(c(C)nn2-c2ccccc2)C3c2ccccc2)cc1` (stereo not drawn), with -2.9%. Consider `CC(C)=CCNc1ncnc2c1c(C#N)cn2C1OC(CO)C(O)C1O` (stereo not drawn), for which the DAPI nuclei signal change (viability), lower = more cytotoxic was -29.5%.

Consider `COc1ccc(/C=C/C(=O)c2cc(F)ccc2OC(=O)c2ccccc2)cc1OC`, for which the DAPI nuclei signal change (viability), lower = more cytotoxic is -35.4%. To `CCCCNC(=O)Nc1ccc(C2SCCS2)cc1` belongs -48.7%; to `COCCNc1nc(-c2ccc(OC)cc2C)c2sc(-c3ccccc3)cc2n1`, -44.4%; to `CN(C)CCNc1nc2sc3c(c2c(=O)n1CCc1ccccc1)CCCCC3`, -31.5%. Then `CC1(c2cc([N+](=O)[O-])cc([N+](=O)[O-])c2)CC(C)(C)N(C(=O)c2ccccc2)c2ccccc21` (stereo not drawn), with -9.83%; and `O=C1c2cccc(Sc3ccccc3)c2C(=O)c2c(Sc3ccccc3)cccc21`, with -2.65%. Then `COc1ccc(C(=O)c2no[n+]([O-])c2C(=O)c2ccc(OC)cc2)cc1`, with -27.2%. Consider `CCCCCc1cc(=O)oc2c(C(CCN(CC)CC)c3ccc(N(C)C)cc3)c(OC)cc(OC)c12` (stereo not drawn), for which the DAPI nuclei signal change (viability), lower = more cytotoxic is -26.1%.

Regarding `COc1cc(C(CCN2CCCC(C)C2)c2c(OC)cc(OC)c3c(-c4ccccc4)cc(=O)oc23)cc(OC)c1OC` (stereo not drawn), the DAPI nuclei signal change (viability), lower = more cytotoxic came to 5.17%. On to `CCC1=Nc2cc(C(=O)NCCCOC)ccc2Sc2ccccc21`, for which the DAPI nuclei signal change (viability), lower = more cytotoxic is -8.1%. Then `CNC[C@@H](CC1CCCCC1)NC[C@H](CC(C)C)NCCc1cccc(C(F)(F)F)c1`, with -45.3%.

In the case of `COc1ccc(C(=O)Nc2ccc(Cl)cc2C(=O)NCc2ccco2)cc1OC`, the DAPI nuclei signal change (viability), lower = more cytotoxic is -10.4%. To `CCOc1ccc2nc(-c3ccccc3)[nH]c2c1` belongs -28.4%; to `Cc1ccnc(N2CCC(C(=O)Nc3ccc(Oc4ccccc4)cc3)CC2)n1`, -9.08%. Then `CCCCS(=O)(=O)/C=C\C=C/S(=O)(=O)CCCC`, with -44.7%; and `C[C@H](O)C#Cc1ccc2c(c1)O[C@@H](CN(C)Cc1ccc(-c3ccccc3)cc1)[C@H](C)CN([C@@H](C)CO)S2(=O)=O`, with -8.66%; and `COC(=O)[C@@]1(Cc2ccc(OC)cc2)[C@@H]2C(=CC(=O)[C@H]2CC(=O)C(=O)N2CCCC2)CN1C(=O)c1ccccc1`, with -38.9%. Then `O=C(Nc1ccc(-c2nc3ncccc3o2)cc1)c1ccc(Br)o1`, with -4.74%. With `CN(C)CCCN(C(=O)CCc1ccccc1)c1nc2ccc(Br)cc2s1`, the DAPI nuclei signal change (viability), lower = more cytotoxic was -28.2%. Regarding `O=[N+]([O-])c1cc(S(=O)(=O)Nc2cccc(Cl)c2)ccc1N/N=C/c1ccc(N2CCOCC2)cc1`, the DAPI nuclei signal change (viability), lower = more cytotoxic came out at 7.56%. Regarding `COc1ccccc1NC(=O)Nc1nc(C(N)C2CCCCC2)cs1` (stereo not drawn), the DAPI nuclei signal change (viability), lower = more cytotoxic is -12%. Then `Cc1ccccc1OCc1n(CC(=O)OC2CC(C)CCC2C(C)C)c2ccccc2[n+]1C` (stereo not drawn), with -45.3%; and `CC(C)c1ccc(NC(=O)Nc2nc(C(N)COCc3ccccc3)cs2)cc1` (stereo not drawn), with -45.1%.

(Values after PubChem BioAssay AID651582 (Sanford-Burnham Center for Chemical Genomics, 2012).)
